Data from paper PMC5571198.
No constants are given. Whether binding was seen depends on the method and setting. In cells and extracts the contact can be indirect. Some entries that bind do so weakly or less than the wild type. For some assays here: Tags and fused reporters may be left off the sequences shown.

Sequences of proteins named here, by UniProt entry; tags and fusion partners are left off.
UniProt Q8VDS3: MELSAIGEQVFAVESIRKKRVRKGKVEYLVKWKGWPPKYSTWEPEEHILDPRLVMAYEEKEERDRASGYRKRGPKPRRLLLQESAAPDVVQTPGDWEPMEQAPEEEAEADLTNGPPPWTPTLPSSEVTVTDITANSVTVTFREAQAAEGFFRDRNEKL

T1: mouse USP26 in mouse ESCs (mouse) (UniProt Q99MX1)
T1 sequence: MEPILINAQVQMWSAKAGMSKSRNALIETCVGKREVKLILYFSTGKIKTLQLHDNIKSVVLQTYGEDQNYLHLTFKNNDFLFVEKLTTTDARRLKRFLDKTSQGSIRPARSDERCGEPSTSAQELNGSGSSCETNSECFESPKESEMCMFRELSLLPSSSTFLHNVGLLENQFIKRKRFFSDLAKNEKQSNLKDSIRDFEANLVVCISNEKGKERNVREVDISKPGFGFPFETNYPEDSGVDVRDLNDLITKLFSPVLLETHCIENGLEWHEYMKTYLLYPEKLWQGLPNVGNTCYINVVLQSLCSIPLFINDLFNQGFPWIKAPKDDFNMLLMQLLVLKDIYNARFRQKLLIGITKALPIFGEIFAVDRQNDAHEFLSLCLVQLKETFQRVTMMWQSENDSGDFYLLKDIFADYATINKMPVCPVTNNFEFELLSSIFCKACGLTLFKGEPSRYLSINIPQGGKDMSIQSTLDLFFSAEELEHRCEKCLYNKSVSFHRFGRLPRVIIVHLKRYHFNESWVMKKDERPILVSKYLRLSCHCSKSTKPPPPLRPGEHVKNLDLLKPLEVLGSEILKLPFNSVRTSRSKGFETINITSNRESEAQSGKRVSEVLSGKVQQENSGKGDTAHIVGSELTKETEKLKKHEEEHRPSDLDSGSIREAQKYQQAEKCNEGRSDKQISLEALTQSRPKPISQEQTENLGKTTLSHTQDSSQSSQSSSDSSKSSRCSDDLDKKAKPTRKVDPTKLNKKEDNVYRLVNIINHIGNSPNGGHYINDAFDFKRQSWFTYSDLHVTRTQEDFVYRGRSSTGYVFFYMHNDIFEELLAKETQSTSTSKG

T2: FLAG-tagged human (h) USP26 (ubiquitin-specific protease 26) (human) (UniProt Q9BXU7)
T2 sequence: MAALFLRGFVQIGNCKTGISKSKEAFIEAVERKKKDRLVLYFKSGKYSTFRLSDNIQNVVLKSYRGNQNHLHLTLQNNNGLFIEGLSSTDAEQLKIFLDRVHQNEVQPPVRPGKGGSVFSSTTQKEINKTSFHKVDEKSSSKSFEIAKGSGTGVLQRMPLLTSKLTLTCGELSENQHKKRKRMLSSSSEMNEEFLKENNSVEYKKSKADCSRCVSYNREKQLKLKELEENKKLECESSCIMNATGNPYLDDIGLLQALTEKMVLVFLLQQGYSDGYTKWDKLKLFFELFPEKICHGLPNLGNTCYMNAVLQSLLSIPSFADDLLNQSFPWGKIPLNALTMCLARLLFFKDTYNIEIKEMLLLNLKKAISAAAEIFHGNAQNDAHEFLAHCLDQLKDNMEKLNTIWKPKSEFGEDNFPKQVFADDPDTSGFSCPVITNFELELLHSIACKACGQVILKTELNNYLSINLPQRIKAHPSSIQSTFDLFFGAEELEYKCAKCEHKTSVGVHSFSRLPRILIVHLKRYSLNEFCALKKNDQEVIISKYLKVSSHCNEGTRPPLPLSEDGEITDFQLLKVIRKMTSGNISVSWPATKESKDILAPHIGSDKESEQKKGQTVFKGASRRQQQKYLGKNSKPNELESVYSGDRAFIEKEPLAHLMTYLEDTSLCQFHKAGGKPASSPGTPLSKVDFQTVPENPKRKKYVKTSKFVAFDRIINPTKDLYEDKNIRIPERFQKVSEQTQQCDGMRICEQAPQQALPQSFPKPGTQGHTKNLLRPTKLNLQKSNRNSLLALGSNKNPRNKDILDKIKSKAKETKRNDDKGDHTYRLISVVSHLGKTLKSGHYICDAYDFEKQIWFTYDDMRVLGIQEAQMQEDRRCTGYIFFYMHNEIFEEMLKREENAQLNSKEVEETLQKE


Experiments:
[1] = biological target: T1, mouse USP26 in mouse ESCs (mouse); assay: co-IP; mouse ESCs infected with or without mouse USP26 lentivirus, extracts harvested at different time points (differentiating ESCs); IP with anti-USP26 antibody, western blot with specific antibodies
[2] = biological target: T2, FLAG-tagged human (h) USP26 (ubiquitin-specific protease 26) (human); assay: co-IP; RING1A knockout 293T cells transfected with FLAG-USP26; IP with anti-FLAG antibody, western blot with specific antibodies for the endogenous proteins

| Molecule | binding [1] | binding [2] |
| --- | --- | --- |
| CBX7 (endogenous in mouse ESCs) (from UniProt Q8VDS3 1-158) | no binding |  |
| CBX4 (endogenous in mouse ESCs) (protein, UniProt O55187 1-551) MELPAVGEHVFAVESIEKKRIRKGRVEYLVKWRGWSPKYNTWEPEENILDPRLLIAFQNRERQEQLMGYRKRGPKPKPLVVQVPTFARRSNVLTGLQDSSADNRAKLELGTQGKGQGHQYELNSKKHHQYQPHSKERSGKPPPPGKSGKYYYQLNSKKHHPYQPDPKMYDLQYQGGHKEAPSPTCPDLGTKSHPPDKWAHGAAAKGYLGAVKPLGGGAGAPGKGSEKGPPNGMTPAPKEAVTGNGIGGKMKIVKNKNKNGRIVIVMSKYMENGMQAVKIKSGEAAEGEARSPSHKKRAAEERHPQGDRTFKKAAGASEEKKAEVPCKRREEEALVSGDAQPQDLGSRKLSPTKEAFGEQPLQLTTKPDLLAWDPARSSHPPAHHHHHHHHHHHHHTVGLNLSHARKRCLSETHGEREPCKKRLTARSISTPTCLGGSPVSEHPANVSPTAASLPQPEVILLDSDLDEPIDLRCVKMRSDAGEPPSTLQVKPEAPAVAAVVAPAPASEKPPAEAQEEPVEPLSEFKPFFGNIIITDVTANCLTVTFKEYVTV | binds |  |
| CBX6 (endogenous in mouse ESCs) (protein, UniProt Q9DBY5 1-414) MELSAVGERVFAAESIIKRRIRKGRIEYLVKWKGWAIKYSTWEPEENILDSRLIAAFEQKERERELYGPKKRGPKPKTFLLKARAQAEALRISDVHFSVKPSASASSPKLHSSAAVHRLKKDIRRCHRMSRRPLPRPDPQGGSPGLRPPISPFSETVRIINRKVKPREPKRNRIILNLKVIDKGPGGGSTAQGTGALARPKVPSRNRVIGKSKKFSESMLRTQIRHMKFGTFALYKPPPAPLAPSTAGKADVASSGPGLLLATPAAAPFDAHSSSSSGCPSPTLQSSDPDDAPPKLLPETLSRSVPNWRESEVLDLSIPPEAAATGQRVPPDVTGAADQALHTALEPTGAGSSEPEAGDWRPEMSPCSNVVVTDVTSNLLTVTIKEFCSPEDFEKVAAGVAGATGGGGGTGPSK | binds |  |
| CBX4 (endogenous in 293T cells) (protein, UniProt O00257 1-560) MELPAVGEHVFAVESIEKKRIRKGRVEYLVKWRGWSPKYNTWEPEENILDPRLLIAFQNRERQEQLMGYRKRGPKPKPLVVQVPTFARRSNVLTGLQDSSTDNRAKLDLGAQGKGQGHQYELNSKKHHQYQPHSKERAGKPPPPGKSGKYYYQLNSKKHHPYQPDPKMYDLQYQGGHKEAPSPTCPDLGAKSHPPDKWAQGAGAKGYLGAVKPLAGAAGAPGKGSEKGPPNGMMPAPKEAVTGNGIGGKMKIVKNKNKNGRIVIVMSKYMENGMQAVKIKSGEVAEGEARSPSHKKRAADERHPPADRTFKKAAGAEEKKVEAPPKRREEEVSGVSDPQPQDAGSRKLSPTKEAFGEQPLQLTTKPDLLAWDPARNTHPPSHHPHPHPHHHHHHHHHHHHAVGLNLSHVRKRCLSETHGEREPCKKRLTARSISTPTCLGGSPAAERPADLPPAAALPQPEVILLDSDLDEPIDLRCVKTRSEAGEPPSSLQVKPETPASAAVAVAAAAAPTTTAEKPPAEAQDEPAESLSEFKPFFGNIIITDVTANCLTVTFKEYVTV |  | binds |
| CBX6 (endogenous in 293T cells) (protein, UniProt O95503 1-412) MELSAVGERVFAAESIIKRRIRKGRIEYLVKWKGWAIKYSTWEPEENILDSRLIAAFEQKERERELYGPKKRGPKPKTFLLKARAQAEALRISDVHFSVKPSASASSPKLHSSAAVHRLKKDIRRCHRMSRRPLPRPDPQGGSPGLRPPISPFSETVRIINRKVKPREPKRNRIILNLKVIDKGAGGGGAGQGAGALARPKVPSRNRVIGKSKKFSESVLRTQIRHMKFGAFALYKPPPAPLVAPSPGKAEASAPGPGLLLAAPAAPYDARSSGSSGCPSPTPQSSDPDDTPPKLLPETVSPSAPSWREPEVLDLSLPPESAATSKRAPPEVTAAAGPAPPTAPEPAGASSEPEAGDWRPEMSPCSNVVVTDVTSNLLTVTIKEFCNPEDFEKVAAGVAGAAGGGGSIGASK |  | binds |
